Each structure is given as a SMILES string. Hit rate of the full screen: of about 310,000 compounds, about 14,000 (4.5%) showed an effect of 50% or more. The effect is printed as a negative number. Some of the results follow.
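Note: peak tail current of the secondary pulse compared with the same well before compound.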

Sequence of human ether-à-go-go-related gene (hERG) potassium channel (Q12809 whole entry, looked up): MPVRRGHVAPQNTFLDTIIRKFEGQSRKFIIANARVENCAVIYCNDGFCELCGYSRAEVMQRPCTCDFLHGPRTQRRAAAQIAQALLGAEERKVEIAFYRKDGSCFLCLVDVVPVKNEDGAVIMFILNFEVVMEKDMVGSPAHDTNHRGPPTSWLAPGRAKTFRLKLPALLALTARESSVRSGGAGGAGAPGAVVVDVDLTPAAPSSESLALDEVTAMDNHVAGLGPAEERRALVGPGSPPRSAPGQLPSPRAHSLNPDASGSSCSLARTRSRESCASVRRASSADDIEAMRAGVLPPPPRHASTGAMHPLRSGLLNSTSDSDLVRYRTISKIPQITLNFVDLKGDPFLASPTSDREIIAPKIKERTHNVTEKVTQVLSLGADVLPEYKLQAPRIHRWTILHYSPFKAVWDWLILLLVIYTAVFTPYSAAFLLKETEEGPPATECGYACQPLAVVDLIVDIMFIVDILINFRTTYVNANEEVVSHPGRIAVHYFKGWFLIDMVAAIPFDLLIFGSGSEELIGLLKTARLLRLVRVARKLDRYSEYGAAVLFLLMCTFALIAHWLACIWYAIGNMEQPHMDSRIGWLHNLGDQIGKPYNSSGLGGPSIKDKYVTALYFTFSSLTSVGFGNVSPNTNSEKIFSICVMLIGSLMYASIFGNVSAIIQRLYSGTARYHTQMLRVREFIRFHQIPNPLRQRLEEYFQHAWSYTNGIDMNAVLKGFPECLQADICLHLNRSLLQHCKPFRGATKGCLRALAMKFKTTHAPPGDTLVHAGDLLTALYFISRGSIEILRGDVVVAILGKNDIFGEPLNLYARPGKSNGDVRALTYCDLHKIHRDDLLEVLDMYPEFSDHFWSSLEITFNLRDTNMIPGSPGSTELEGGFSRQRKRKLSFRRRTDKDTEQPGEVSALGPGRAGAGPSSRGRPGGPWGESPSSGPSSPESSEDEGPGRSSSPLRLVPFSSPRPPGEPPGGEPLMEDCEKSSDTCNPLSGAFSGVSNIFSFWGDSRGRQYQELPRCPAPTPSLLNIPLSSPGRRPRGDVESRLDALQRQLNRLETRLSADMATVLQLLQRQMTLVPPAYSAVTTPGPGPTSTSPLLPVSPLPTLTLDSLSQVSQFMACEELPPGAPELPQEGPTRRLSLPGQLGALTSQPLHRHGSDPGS

The assay has as its target human ether-à-go-go-related gene (hERG) potassium channel (human, UniProt Q12809). Kind of assay: primary screen, population patch clamp on CHO cells stably expressing hERG.
Take `COCCNC(=O)c1cc(-c2ccccc2)n(Cc2cc(C)no2)n1`: the “hERG current change (%, negative = inhibition) at 10uM” value was 0.26%.

For the compound `O=C(Nc1ccc(C2SCCS2)cc1)c1ccccc1`, the “hERG current change (%, negative = inhibition) at 10uM” value is 1.04%.

Turning to `O=C(CO)N/N=C/c1ccccc1F`, the “hERG current change (%, negative = inhibition) at 10uM” value was determined as 19.1%.

In the case of `CCc1nc2ccc(C(=O)N3CCN(c4ccc(Cl)cc4)CC3)cc2nc1CC`, the “hERG current change (%, negative = inhibition) at 10uM” value is -6.46%.

`CCOc1ccc(CNC(=O)CCCn2ccc3cc(S(=O)(=O)N4CCCC4)ccc32)cc1`: the “hERG current change (%, negative = inhibition) at 10uM” value is reported as -32.7%.

As to `N#Cc1cccc(NC(=O)C2SC(=Nc3ccccc3)C(C(=O)N3CCOCC3)=C2N)c1` (stereo not shown), the “hERG current change (%, negative = inhibition) at 10uM” value is -39.4%.

`CCCC1CCC(c2ccc(/C(N)=N/O)cc2)CC1` (stereo not shown): the “hERG current change (%, negative = inhibition) at 10uM” value amounted to 8.2%.

For `CNS(=O)(=O)c1ccc(N=Cc2c(O)n(-c3ccccc3)c(=O)[nH]c2=O)cc1`, the “hERG current change (%, negative = inhibition) at 10uM” value was 12.6%.

With `Clc1ccc(-c2nnc(-c3ccccc3)c(-c3c[nH]c4ccccc34)n2)cc1`, the “hERG current change (%, negative = inhibition) at 10uM” value turned out to be 12.7%.

Turning to `Cc1ccccc1S(=O)(=O)Cc1ccc(C(=O)NC2CCCCC2C)o1` (stereo not shown), the “hERG current change (%, negative = inhibition) at 10uM” value was -16.1%.

Regarding `COc1ccc(OC)c(S(=O)(=O)NCc2cn3ccsc3n2)c1`, the “hERG current change (%, negative = inhibition) at 10uM” value is listed as -0.816%.

For `COc1ccc2oc(C(=O)OCC(=O)N(C)CC(=O)Nc3ccc(C)cc3)c(C)c2c1`, the “hERG current change (%, negative = inhibition) at 10uM” value was -25.8%.

On to `COc1cc(/C=N/NC(=O)c2cc(C)oc2C)ccc1O`, for which the “hERG current change (%, negative = inhibition) at 10uM” value amounted to 10.8%.

Take `COc1ccc(C(=O)C2CC2c2ccc3c(c2)OCO3)cc1` (stereo not shown): the “hERG current change (%, negative = inhibition) at 10uM” value was -20.8%.

As for `O=C(O)c1nn(CCOc2c(Cl)cccc2Cl)c(=O)c2ccccc12`, the “hERG current change (%, negative = inhibition) at 10uM” value is reported as 11.8%.

With `Cc1cc(C)c(OCCN2CC(C)OC(C)C2)c(Br)c1.O=C(O)C(=O)O` (stereo not shown), the “hERG current change (%, negative = inhibition) at 10uM” value is reported as -17.5%.

`CN(c1ccccc1)S(=O)(=O)c1cccc(C(=O)OCC(=O)NCc2ccc3c(c2)OCO3)c1`: the “hERG current change (%, negative = inhibition) at 10uM” value is reported as -12.5%.

For `CC1(C)Cc2c(C#N)c(N3CCOCC3)nc(Cc3ccccc3)c2CO1`, the “hERG current change (%, negative = inhibition) at 10uM” value is -4.34%.

For the compound `Cc1ccc(-n2c(O)c(C=Nc3cc(C)on3)c3ccccc3c2=O)c(C)c1`, the “hERG current change (%, negative = inhibition) at 10uM” value stood at 0.0307%.

For `COc1ccc(NC(=O)Cn2cnc3c(nnn3-c3ccc(C)cc3)c2=O)cc1`, the “hERG current change (%, negative = inhibition) at 10uM” value is recorded as 18.4%.

In the case of `CCNC(=S)NC1CC2CCCC(C1)N2Cc1ccco1` (stereo not shown), the “hERG current change (%, negative = inhibition) at 10uM” value is -19.1%.

Take `Cc1ccc(CNS(=O)(=O)c2c(C)[nH]c(=O)[nH]c2=O)cc1`: the “hERG current change (%, negative = inhibition) at 10uM” value is 10.5%.

Take `O=c1c2c(nc3c(-c4ccccc4)c[nH]n13)CCC2`: the “hERG current change (%, negative = inhibition) at 10uM” value is reported as 10.9%.

Turning to `CC(C)[C@@H](C(=O)N[C@@H](Cc1ccccc1)C(=O)O)N1C(=O)N2CCc3c([nH]c4ccccc34)[C@@]2(C)C1=O`, the “hERG current change (%, negative = inhibition) at 10uM” value was -1.5%.

For the compound `CC(=O)Nc1ccc(NC(=O)C(C)OC(=O)c2ccc(-n3cnnn3)cc2)cc1` (stereo not shown), the “hERG current change (%, negative = inhibition) at 10uM” value turned out to be 2.03%.

As to `CCC(=O)NC(c1ccccc1)c1nc2ccccc2[nH]1` (stereo not shown), the “hERG current change (%, negative = inhibition) at 10uM” value amounted to 17.1%.

On to `CCNc1nc(NC(C)C)nc(Oc2ccc(=O)n(C)n2)n1`, for which the “hERG current change (%, negative = inhibition) at 10uM” value was determined as 16.6%.

Consider `Cc1ccc2[nH]c(=O)c(CN(CC3CCCO3)C(=S)NCc3ccco3)cc2c1` (stereo not shown), for which the “hERG current change (%, negative = inhibition) at 10uM” value is recorded as -8.49%.

In the case of `Cc1ccccc1NC(=O)c1ccc(-c2ccc(Cl)cc2Cl)o1`, the “hERG current change (%, negative = inhibition) at 10uM” value is recorded as -1.75%.

As to `CC(C)n1cc(-c2ccc(Cl)cc2)cc(C#N)c1=O`, the “hERG current change (%, negative = inhibition) at 10uM” value came to 8.72%.

On to `O=C(/C=C/c1ccc(Cl)c(Cl)c1)NCc1ccco1`, for which the “hERG current change (%, negative = inhibition) at 10uM” value was -14.1%.

Turning to `CCN1CCN(CC(=O)Nc2cc(C(F)(F)F)ccc2OCCOC)CC1.O=C(O)C(=O)O`, the “hERG current change (%, negative = inhibition) at 10uM” value was -75.4%.

In the case of `CCOC(=O)Cn1c(=O)oc2cc(S(=O)(=O)Nc3ccc(F)cc3)ccc21`, the “hERG current change (%, negative = inhibition) at 10uM” value is -13%.

Consider `Cc1ccc(NCc2nnc(SCC(=O)N(Cc3ccccc3)C(C)(C)C)o2)c(C)c1`, for which the “hERG current change (%, negative = inhibition) at 10uM” value is reported as -9.53%.

With `CCOc1ccc2c(c1)-c1c(ssc1=S)C(C)(C)N2`, the “hERG current change (%, negative = inhibition) at 10uM” value came out at 4.44%.

Regarding `CC(C)(Oc1ccc(Cl)cc1)C(=O)NC1CCSC1=O` (stereo not shown), the “hERG current change (%, negative = inhibition) at 10uM” value is on record as -10.8%.

In the case of `C=CCn1c(O)c(N=NC(=O)CNC(=O)c2ccncc2)c2ccccc21`, the “hERG current change (%, negative = inhibition) at 10uM” value was -11.2%.

On to `Cc1ccccc1N(CC(N)=O)S(C)(=O)=O`, for which the “hERG current change (%, negative = inhibition) at 10uM” value came to 11.3%.

`Cc1cc2c(cc1C)NC(CC(=O)NCc1ccccc1)C(=O)N2` (stereo not shown): the “hERG current change (%, negative = inhibition) at 10uM” value stood at 0.987%.

Regarding `Cc1ccc(C(=O)Nc2ccsc2C(=O)O)cc1`, the “hERG current change (%, negative = inhibition) at 10uM” value was found to be 21.4%.

Regarding `CCOc1ccc2cc(S(=O)(=O)N3CCOCC3)ccc2c1`, the “hERG current change (%, negative = inhibition) at 10uM” value is -0.497%.

As for `CC(=O)N1CCC(N(CCN2CCOCC2)C(=S)Nc2cccc(C)c2)CC1`, the “hERG current change (%, negative = inhibition) at 10uM” value worked out at 0.988%.

Turning to `C=CCN(c1ccccc1)S(=O)(=O)c1ccc2c(c1)N(C(C)=O)CCO2`, the “hERG current change (%, negative = inhibition) at 10uM” value is recorded as -3.05%.

With `COc1cc(CNC(=O)c2nc(Cn3nc(C)c(Br)c3C)no2)cc(OC)c1`, the “hERG current change (%, negative = inhibition) at 10uM” value is recorded as -16.2%.

In the case of `CCN(CC)C(=O)c1cnn(-c2ccccc2)c1NC(=O)c1ccccc1F`, the “hERG current change (%, negative = inhibition) at 10uM” value is -3.32%.

With `Cc1nn(-c2ccccc2)c(/N=C/c2ccc(O)cc2)c1-c1ccccc1`, the “hERG current change (%, negative = inhibition) at 10uM” value was -1.49%.

For the origin of these results see article PMC4336329 (PLoS ONE, 2015).
